# Test results published in the supplement of paper PMC8813932.
# Where a name gives a salt, the structure may show the parent alone. ± gives the standard deviation of the averaged measurements. The list shows a part of the results. Single values are uncertain, as repeats are few or missing.
# What was measured:
# Assay in all cases: log2 surviving fraction relative to plate median (drug vs vehicle, or drug+dl922-947 vs dl922-947 alone); ovarian cancer lines: OVCAR4 is platinum-sensitive while Ov4Cis resists cisplatin and Ov4Carbo carboplatin; higher = more cell survival
# Conditions in all cases: compound concentration: 10 uM, 192 h
# OVCAR4 = tested on: OVCAR4
# Ov4Carbo = tested on: Ov4Carbo
# Ov4Cis = tested on: Ov4Cis
# [1] = dl922-947 oncolytic adenovirus co-treatment: MOI 10
# [2] = dl922-947 oncolytic adenovirus co-treatment: none
Structure (SMILES),log2 surviving fraction (OVCAR4; [1]),log2 surviving fraction (OVCAR4; [2]),log2 surviving fraction (Ov4Carbo; [1]),log2 surviving fraction (Ov4Carbo; [2]),log2 surviving fraction (Ov4Cis; [1]),log2 surviving fraction (Ov4Cis; [2])
COc1ccc(C[C@@H]2c3cc(OC)c(OC)cc3CC[N@+]2(C)CCC(=O)OCCCCCOC(=O)CC[N@@+]2(C)CCc3cc(OC)c(OC)cc3[C@H]2Cc2ccc(OC)c(OC)c2)cc1OC [Cisatracurium besylate (Nimbex)],-0.547 ± 0.94,-1.17 ± 0.43,-0.205,-3.02,-0.308,-1.01
COc1ccc2[nH]c([S@@+]([O-])Cc3ncc(C)c(OC)c3C)nc2c1 [Esomeprazole magnesium (Nexium)],-0.426 ± 1.2,-0.994 ± 0.34,-0.22,0.834,-1.54,-0.469
Nc1nc(F)nc2c1ncn2[C@@H]1O[C@H](CO)[C@@H](O)[C@@H]1O [Fludarabine (Fludara)],-0.54 ± 1.6,-1.36 ± 0.2,-0.893,-2.01,-0.195,0.555
COc1ccccc1OCC(O)CO (configuration not stated) [Guaifenesin (Guaiphenesin)],-0.71 ± 0.16,0.233 ± 0.032,0.384,0.453,0.113,-0.51
COCCc1ccc(OCC(O)CNC(C)C)cc1 (configuration not stated) [Metoprolol tartrate],0.691 ± 1.4,-0.279 ± 1.1,-0.235,-1.03,-0.189,-0.353
COc1cc(Cc2cnc(N)nc2N)cc(OC)c1OC [Trimethoprim],0.757 ± 1,0.86 ± 1,1.94,1.22,-0.623,-0.387
CN(C)/N=N/c1[nH]cnc1C(N)=O [Dacarbazine (DTIC-Dome)],0.0438 ± 0.15,1.89 ± 3.1,-0.768,-0.862,-0.346,-0.329
Cc1c(Nc2ncccc2C(=O)O)cccc1C(F)(F)F [Flunixin meglumin],0.51 ± 0.19,0.296 ± 0.27,0.125,0.165,0.245,0.17
CC[C@@H](CO)NCCN[C@@H](CC)CO [Ethambutol HCl],0.209 ± 0.43,0.436 ± 0.33,0.0295,-0.356,0.634,-0.575
CS(=O)(=O)Nc1ccc([N+](=O)[O-])cc1Oc1ccccc1 [Nimesulide],-0.297 ± 0.57,-0.548 ± 0.24,0.0766,0.315,-1.23,-0.791
COc1ccc2[nH]cc(CCNC(C)=O)c2c1 [Melatonin],0.669 ± 0.042,-1.84 ± 4,1.42,1.45,0.401,0.297
CC(C)CCC[C@@H](C)[C@H]1CC[C@H]2[C@@H]3CC=C4C[C@@H](O)CC[C@]4(C)[C@H]3CC[C@]12C [Cholesterol],0.525 ± 0.5,-0.641 ± 0.61,0.742,0.893,0.178,0.764
O=C(O)c1cc(/N=N/c2ccc(O)c(C(=O)O)c2)ccc1O [olsalazine sodium],0.0874 ± 0.18,0.559 ± 0.24,-0.0216,1.1,0.452,0.619
C=C1/C(=C\C=C2/CCC[C@]3(C)[C@@H]([C@H](C)CCCC(C)C)CC[C@@H]23)C[C@@H](O)C[C@@H]1O [Alfacalcidol],-0.218 ± 0.6,-1.08 ± 0.73,-0.336,-1.67,-0.379,-0.169
C#CCC(Cc1cnc2nc(N)nc(N)c2n1)c1ccc(C(=O)N[C@@H](CCC(=O)O)C(=O)O)cc1 (some centres not stated) [Pralatrexate (Folotyn)],-2.28 ± 0.31,-5.19 ± 0.3,-4.49,-7.26,-0.645,-0.765
"CCCCC1C(=O)N(c2ccccc2)N(c2ccccc2)C1=O [Phenylbutazone (Butazolidin, Butatron)]",0.358 ± 0.93,0.822 ± 0.36,-0.635,0.0833,-0.0554,0.839
CN1CCN(c2c(F)cc3c(=O)c(C(=O)O)cn(CCF)c3c2F)CC1 [Fleroxacin (Quinodis)],1.01 ± 0.63,0.109 ± 0.0033,-0.00762,0.789,0.432,-0.26
CC(C(=O)O)c1cccc(Oc2ccccc2)c1 (configuration not stated) [Fenoprofen calcium hydrate],-0.278 ± 0.16,-0.449 ± 0.28,0.774,0.919,-0.248,0.219
CN1CCC(=C2c3ccccc3CCc3cccnc32)CC1 [Azatadine dimaleate],-0.967 ± 0.43,-0.597 ± 0.2,-0.0122,-0.595,-0.58,-0.796
O=C1C(O)=C([C@H]2CC[C@H](c3ccc(Cl)cc3)CC2)C(=O)c2ccccc21 [Atovaquone (Atavaquone)],0.846 ± 0.033,-0.179 ± 0.52,1.06,1.34,-0.212,-0.155
Oc1ccc(OC2CCCCO2)cc1 (configuration not stated) [Deoxyarbutin],-1.13 ± 0.029,-2.17 ± 0.56,-2.85,-3.05,-4.62,-0.267
CCCCNc1cc(C(=O)O)cc(S(N)(=O)=O)c1Oc1ccccc1 [Bumetanide],1.18 ± 0.11,1.42 ± 0.41,1.87,1.51,-0.0116,0.494
[O-][n+]1cccc(CO)c1 [Mepiroxol],0.471 ± 0.41,0.152 ± 0.21,1.01,-0.0621,0.708,0.072
NC[C@H](O)c1ccc(O)c(O)c1 [Noradrenaline bitartrate monohydrate (Levophed)],-0.277 ± 0.57,0.208 ± 0.093,-0.449,-1.22,-0.212,1.11

Structure (SMILES),log2 surviving fraction (OVCAR4; [1]),log2 surviving fraction (OVCAR4; [2]),log2 surviving fraction (Ov4Carbo; [1]),log2 surviving fraction (Ov4Carbo; [2]),log2 surviving fraction (Ov4Cis; [1]),log2 surviving fraction (Ov4Cis; [2])
CN(C)CC/C=C1/c2ccccc2COc2ccc(CC(=O)O)cc21 [Olopatadine hydrochloride (Opatanol)],0.266 ± 0.043,0.492 ± 0.16,0.219,0.278,0.957,0.367
CCOc1ccccc1OC(c1ccccc1)C1CNCCO1 (configuration not stated) [Reboxetine mesylate],-0.676 ± 0.61,-0.509 ± 0.24,-0.307,-0.572,-0.449,0.222
O=C1CCc2ccc(OCCCCN3CCN(c4cccc(Cl)c4Cl)CC3)cc2N1 [Aripiprazole (Abilify)],1.21 ± 0.78,0.099 ± 0.19,-1.49,0.531,-0.388,0.137
COc1cc(NC(C)CCCN)c2ncccc2c1 (configuration not stated) [Primaquine Diphosphate],-0.446 ± 0.53,-0.229 ± 0.48,-1.12,0.233,-1.47,-0.0192
NC(=O)CC[C@H](N)C(=O)O [L-Glutamine],-0.694 ± 0.47,0.211 ± 0.33,0.39,-0.3,-0.206,-0.0316
COc1ccc2cc(CCC(C)=O)ccc2c1 [Nabumetone],0.306 ± 0.54,-0.276 ± 0.28,0.488,0.287,1.61,0.482
NC(=O)c1ncn([C@@H]2O[C@H](CO)[C@@H](O)[C@H]2O)n1 [Ribavirin (Copegus)],0.303 ± 0.4,1.5 ± 0.71,0.546,0.057,0.281,0.759
CN1[C@@H]2CC[C@H]1C[C@@H](OC(=O)c1c[nH]c3ccccc13)C2 [Tropisetron],-0.29 ± 0.23,-0.707 ± 0.97,0.753,-0.308,-0.307,-0.0518
C[C@@H](O[C@H]1OCCN(Cc2nn(P(=O)(O)O)c(=O)[nH]2)[C@H]1c1ccc(F)cc1)c1cc(C(F)(F)F)cc(C(F)(F)F)c1 [Fosaprepitant dimeglumine],-0.705 ± 0.54,-1.14 ± 0.15,-0.519,-1.3,-1.59,-4.43
OCC(CO)N[C@H]1C[C@](O)(CO)[C@@H](O)[C@H](O)[C@H]1O [Voglibose],0.14 ± 0.23,-0.306 ± 0.4,0.248,-0.641,0.52,-0.0689
CN1[C@@H]2CC[C@H]1C[C@@H](OC(=O)C(CO)c1ccccc1)C2 (some centres not stated) [Atropine],-1.76 ± 0.14,-2.8 ± 0.93,-0.889,-2.2,-1.43,-4.19
COc1ccc2c(c1OC)C(=O)O[C@@H]2[C@H]1c2c(cc3c(c2OC)OCO3)CCN1C [Noscapine HCl],-1.17 ± 0.65,-0.706 ± 0.068,-1.69,-0.724,-0.0577,-1.89
CC(C)c1nc(CN(C)C(=O)N[C@H](C(=O)N[C@@H](Cc2ccccc2)C[C@H](O)[C@H](Cc2ccccc2)NC(=O)OCc2cncs2)C(C)C)cs1 [Ritonavir],0.229 ± 0.46,-3.27 ± 3.5,-0.383,-0.794,-0.0776,-0.754
COC(=O)C1=CCCN(C)C1 [Arecoline],0.24 ± 0.16,0.796 ± 0.4,0.355,-1.05,-0.0245,0.864
CN(C)CCN1C(=O)c2ccccc2N(C)c2ccccc21 [Dibenzepine HCl],0.556 ± 0.68,0.176 ± 0.14,0.0284,-1.11,0.732,0.249
Cc1ccnc2c1NC(=O)c1cccnc1N2C1CC1 [Nevirapine (Viramune)],-0.596 ± 0.65,-0.508 ± 0.35,1.37,1.59,-1.63,-0.195
CCC[C@@H]1C[C@@H](C(=O)N[C@@H]([C@H]2O[C@H](SC)[C@H](O)[C@@H](O)[C@H]2O)[C@H](C)Cl)N(C)C1 [Clindamycin],-0.957 ± 0.75,-1.86 ± 1.4,-1.1,-0.504,-1.57,-2.55
CN(N=O)C(=O)N[C@@H](C=O)[C@@H](O)[C@H](O)[C@H](O)CO [Streptozotocin (Zanosar)],0.244 ± 1.3,0.857 ± 0.76,0.767,0.377,-0.284,0.383
Clc1ccc(C(Cn2ccnc2)OCc2ccsc2Cl)c(Cl)c1 (configuration not stated) [Tioconazole],-1.74 ± 0.69,-2.38 ± 0.41,-2.96,-2.38,-4.17,-1.27
C[C@@H]1C/C=C/C=C/C=C/C=C/[C@H](O[C@@H]2O[C@H](C)[C@@H](O)[C@H](N)[C@@H]2O)C[C@@H]2O[C@](O)(C[C@@H](O)C[C@H]3O[C@@H]3/C=C/C(=O)O1)C[C@H](O)[C@H]2C(=O)O [Natamycin (Pimaricin)],-0.17 ± 0.52,-0.152 ± 0.32,-0.354,-0.147,-0.729,-0.366
CCn1cc(C(=O)O)c(=O)c2cnc(N3CCCC3)nc21 [Piromidic Acid],-0.289 ± 1.5,-0.336 ± 0.34,-0.387,0.368,0.119,0.0994
O=C(O[C@H]1CN2CCC1CC2)N1CCc2ccccc2[C@@H]1c1ccccc1 [Solifenacin succinate],-2.24 ± 0.99,0.157 ± 0.16,-3.72,1.51,-3.89,-1.86
COC(=O)[C@H]1[C@H]2C[C@@H]3c4[nH]c5cc(OC)ccc5c4CCN3C[C@H]2C[C@@H](OC(=O)c2cc(OC)c(OC)c(OC)c2)[C@@H]1OC [Reserpine],-2.6 ± 1.4,-3 ± 0.63,-7.5,-6.55,-3.09,-3.06
